In PubChem BioAssay AID1345082 (National Center for Advancing Translational Sciences (NCATS), 2018):
Screen size: about 94,000 compounds; about 4,000 (4.3%) were called active. Inconclusive results, whose numbers are uncertain, are shown with a selection of clear calls. The call rests on the fitted dose curve; in most records, active means well fitted inhibition curve with a large enough effect; inconclusive means small, poorly fitted or top-dose-only effect; inactive means no such curve, though single readings can be large or run the other way. Where the call is inconclusive, the potency comes from a doubtful curve fit.
On the % scale 0 is the no-effect control and ±100 the full control effect; potency means the concentration at half of the fitted maximal effect; tags describe the fitted curve by direction and shape.

Assay: Cytotoxic Profiling in NIH 3T3 Cell Line of Diverse Libraries Using Quantitative High-Throughput Screening; further: nearly all actives have a fitted effect of over 55% in size
Conditions: NIH 3T3 viability, CellTiter-Glo ATP luminescence, 48-72 h; activity change, negative = cytotoxicity: at 96.7 µM (top of the series) unless noted; series mostly up to 96.7 µM
Method in brief: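 NIH 3T3 cells at 400 cells/well received 23 nL of compound by pintool and were incubated 48 or 72 h at 37 °C. Viability was read as ATP-coupled CellTiter-Glo luminescence.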
In the case of `O=c1cc(N2CCOCC2)oc2c(-c3cncnc3)nccc12`, the Potency is reported as inconclusive: 89.1 µM [inhibitor, single point]. In the case of `CC(C)CNC(=O)Cc1c[nH]c2ncc(-c3cnn(C)c3)cc12`, the Potency is reported as active: 44.7 µM. In the case of `Clc1cc(NC2CCCCCC2)n2nccc2n1`, the Potency is reported as inconclusive: 39.8 µM [inhibitor, partial curve, poor fit]. For `COc1cc(CN2CCC3(CCCO3)CCC2=O)cc(OC)c1` (configuration not stated), the “activity change, negative = cytotoxicity” value was inactive: -0.567%. With `CCCCn1c(=O)c(C(=O)NCc2cccc(Cl)c2)nc2cccnc21` the Potency was active: 35.5 µM. For `O=C(NCc1cccc(Cl)c1)C1CCc2nnc(C3CCN([S+](=O)([O-])c4ccccc4Cl)CC3)n21` (configuration not stated), the Potency was inconclusive: 70.8 µM [inhibitor, single point]. For `CCCN1CCN(C(=O)c2cc3c(s2)CCN(C(=O)c2ccc(F)cc2)C3)CC1`, the Potency was inconclusive: 31.6 µM [inhibitor, partial curve, poor fit]. With `CCCC(O)CN1CCC(=O)N(Cc2ccccc2)Cc2ccccc21` (configuration not stated) the “activity change, negative = cytotoxicity” value was inactive: -11.3%. With `Cc1noc(C)c1C(=O)N1CCC2(CC1)CN(C(=O)c1ccc(Cl)cc1)CCO2` the Potency was active: 6.31 µM. For `O=C(NCc1ccccc1)C1=NO[C@@H]2CN(Cc3ccc(F)c(F)c3)C[C@H]12`, the Potency was inconclusive: 56.2 µM [inhibitor, partial curve, poor fit]. In the case of `O=C(Nc1cccc2ccccc12)O[C@@H]1CO[C@H]2[C@@H]1OC[C@@H]2n1nnnc1SC1CCCC1`, the Potency is reported as inconclusive: 35.5 µM [inhibitor, partial curve, poor fit]. For `CN(C)c1ccc(NC(=O)c2cc(-c3ccc(C(F)(F)F)cc3)nc3c2cnn3C)cc1`, the “activity change, negative = cytotoxicity” value was inactive: -31.1%. In the case of `Cc1cnc(-c2ccccc2)n1CC1CCCN(Cc2ccc(C#N)cc2)C1` (configuration not stated), the Potency is reported as inconclusive: 50.1 µM [inhibitor, partial curve, poor fit]. In the case of `O=C([C@@H]1CCCN1Cc1cc(=O)c2cc(F)ccc2[nH]1)N1CCCCC1`, the Potency is reported as inconclusive: 35.5 µM [inhibitor, partial curve, poor fit]. In the case of `Cc1ccc(F)cc1CN1CCOc2cc([S+](=O)([O-])N(C)C)ccc2C1`, the Potency is reported as inconclusive: 39.8 µM [inhibitor, partial curve, poor fit]. In the case of `O=C(c1ccccn1)N1CC(Oc2ccc(-c3noc(C4CC4)n3)cc2)C1`, the Potency is reported as inconclusive: 31.6 µM [inhibitor, partial curve, poor fit]. With `Cc1ccc(C(=O)Nc2cc(C3CC3)nn2-c2ccccc2)cc1` the Potency was inconclusive: 79.4 µM [inhibitor, partial curve, poor fit]. For `O=C1N(Cc2ccc(F)cc2)CCCC12CCN(CC1CCCC1)C2` (configuration not stated), the Potency was inconclusive: 56.2 µM [inhibitor, partial curve, poor fit]. In the case of `COc1ccc(-c2cc(C(=O)NCC3CC3)c3c(C4CCNC4)noc3n2)cc1` (configuration not stated), the Potency is reported as inconclusive: 50.1 µM [inhibitor, partial curve, poor fit]. With `COc1ccc(CN2Cc3cc(NC(=O)Cc4ccccc4)ccc3OC(C)C2=O)cc1` (configuration not stated) the Potency was inconclusive: 50.1 µM [inhibitor, partial curve, poor fit]. In the case of `CCCN(CC1CC1)C(=O)CCC1CCCN(S(=O)(=O)c2ccc(C)cc2)C1` (configuration not stated), the Potency is reported as inconclusive: 50.1 µM [inhibitor, partial curve, poor fit]. For `Cc1ccc(C)c(C(=O)N2CCC3(CC2)N=C(c2ccc(Cl)cc2)NO3)c1`, the Potency was inconclusive: 50.1 µM [inhibitor, partial curve, poor fit]. With `COc1cccc(CN2Cc3nc(Nc4cccc(F)c4)ccc3OCC2=O)c1` the Potency was inconclusive: 100 µM [inhibitor, partial curve]. In the case of `COc1ccc(C2=NOC3(CCN([S+](=O)([O-])c4cccc(OC)c4)C3)C2)cc1` (configuration not stated), the Potency is reported as inconclusive: 22.4 µM [inhibitor, partial curve]. For `COc1cccc(CC(=O)N2CCCC(c3nc(CCOCC4CCCC4)no3)C2)c1` (configuration not stated), the Potency was inconclusive: 44.7 µM [inhibitor, partial curve, poor fit]. In the case of `O=C(c1ccc(Br)o1)N1CCCN(c2cc(-c3ccc(Cl)cc3)[nH]n2)CC1`, the Potency is reported as active: 39.8 µM. For `O=C(O)c1ccc2c(c1)N(S(=O)(=O)c1ccccc1F)CC2`, the Potency was inconclusive: 79.4 µM [inhibitor, partial curve, poor fit]. For `COC(=O)[C@@H]1Cc2ncn(Cc3ccc(OC)cc3)c2CN1CCCc1ccccc1`, the Potency was inconclusive: 10 µM [inhibitor, full curve, poor fit]. In the case of `COc1ccc(-n2nc(C3CCN(Cc4cccnc4)CC3)[nH]c2=O)cc1`, the Potency is reported as inconclusive: 28.2 µM [inhibitor, partial curve, poor fit]. For `COc1cccc(CCC(=O)N2CCC(Cc3nc(-c4cnccn4)no3)CC2)c1`, the “activity change, negative = cytotoxicity” value was inactive: -21.6%. In the case of `COc1ccc([C@H]2C[C@@H](O)[C@@H](O)[C@@H]2NS(C)(=O)=O)cc1`, the “activity change, negative = cytotoxicity” value is reported as inactive: -13.5% [at 174 µM]. With `Cc1ccccc1OCc1nc(C2CN(C(=O)Cc3ccsc3)C2)no1` the Potency was inconclusive: 44.7 µM [inhibitor, partial curve, poor fit]. With `O=c1c2nc(NCc3ccccc3)ccc2ncn1Cc1ccccn1` the Potency was active: 79.4 µM. In the case of `Cc1cn2nc(C(=O)NCc3ccccc3C(F)(F)F)cc2c(N2CCCC2)n1`, the “outcome” value is reported as “inactive”. In the case of `O=C1NCc2ccccc2CC12CCN(Cc1ccc(F)cc1F)C2` (configuration not stated), the “activity change, negative = cytotoxicity” value is reported as inactive: -12.9%. With `CC(=O)N(C)C(C)c1cccs1` (configuration not stated) the Potency was inconclusive: 56.2 µM [inhibitor, single point]. For `O=C(Nc1ccccc1)N1CCC(c2nc(CCOc3ccc(F)cc3)no2)C1` (configuration not stated), the Potency was inconclusive: 31.6 µM [inhibitor, partial curve]. With `CC(=O)NC1(C)CCCN(Cc2cc(-c3c(C)noc3C)cs2)C1` (configuration not stated) the Potency was inconclusive: 89.1 µM [inhibitor, partial curve]. With `N#Cc1ccccc1CN1C[C@@H](CO)[C@H](NC(=O)c2ccccc2)C1` the “activity change, negative = cytotoxicity” value was inactive: -16.6%. With `CC(C)c1ccc(-c2nc(C3CC(=O)N(c4ccc(F)c(Cl)c4)C3)no2)cc1` (configuration not stated) the Potency was inconclusive: 7.94 µM [inhibitor, full curve, poor fit]. With `O=C(NCCCc1ccccc1)c1ccc2nnc(-c3ccc(Cl)cc3)n2c1` the Potency was inconclusive: 50.1 µM [inhibitor, partial curve, poor fit]. For `CCn1cc(CN2CCN(C(=O)c3ccsc3)CC2)ccc1=O`, the “activity change, negative = cytotoxicity” value was inactive: -19%. In the case of `Cn1ccnc1C(=O)N1CCCCCCNC(=O)[C@@H]2C[C@@H](c3nc(Cc4ccccc4)no3)C[C@@H]21`, the Potency is reported as inconclusive: 79.4 µM [inhibitor, partial curve, poor fit]. In the case of `O=C(c1n[nH]c2c1CCCCCC2)N1CCc2nc3cc(-c4ccccc4)[nH]n3c(=O)c2C1`, the Potency is reported as inconclusive: 79.4 µM [inhibitor, single point]. In the case of `Cc1cc(C)cc(-c2ccc(CN3CCCC3C(=O)NCc3ccc(C(F)(F)F)cc3)cc2)c1` (configuration not stated), the Potency is reported as active: 35.5 µM. For `COc1ccc(-c2ccnc3nc(C4CCCO4)nn23)c(F)c1` (configuration not stated), the “outcome” value was “inactive”. In the case of `CC(C)[S+](=O)([O-])N1CC2(CN(Cc3ccc(Cl)cc3)C(=O)O2)C1`, the Potency is reported as inconclusive: 89.1 µM [inhibitor, partial curve, poor fit]. For `CN(C)c1nccnc1OC1CCN(C(=O)C2CCOCC2)C1` (configuration not stated), the “outcome” value was “inactive”. For `COc1cc(C)c2c(c1C)C[C@H]([C@H](C)C(=O)NC1CCCC1)CC2`, the Potency was inconclusive: 79.4 µM [inhibitor, partial curve, poor fit]. For `COc1ccc(C2(C(=O)N(C)Cc3ccc(F)cc3)CCOCC2)cc1`, the Potency was inconclusive: 50.1 µM [inhibitor, partial curve, poor fit]. For `CCCCN1CCN(c2nc(-c3ccccc3)nc3c2CCNC3)CC1=O`, the Potency was inconclusive: 89.1 µM [inhibitor, single point]. For `CC1(C(=O)NC2CCOCC2)CCc2cnc(Nc3ccccc3)nc21` (configuration not stated), the Potency was inconclusive: 44.7 µM [inhibitor, partial curve, poor fit]. With `c1ccc2c(c1)CCC(N1CCN(Cc3cc4n(n3)CCCNC4)CC1)C2` (configuration not stated) the Potency was inconclusive: 89.1 µM [inhibitor, partial curve, poor fit]. For `CN(C)C(=O)CCC1CCN(S(=O)(=O)c2cccc(F)c2)CC1`, the Potency was inconclusive: 70.8 µM [inhibitor, partial curve, poor fit]. In the case of `COc1ccc(-c2nc(C)nc3c2CN(C(=O)c2ccccc2F)CC3)cc1`, the Potency is reported as inconclusive: 35.5 µM [inhibitor, partial curve]. For `Cc1noc(C)c1[S+](=O)([O-])N1CCC(C(=O)N2CCC3(CC2)CC(=O)Nc2ccccc2O3)CC1`, the Potency was inconclusive: 56.2 µM [inhibitor, partial curve, poor fit]. For `Cc1cccc(N2CCN(C(=O)c3ccc4c(c3)N(C)C3CCCCN3C4=O)CC2)c1` (configuration not stated), the Potency was inconclusive: 50.1 µM [inhibitor, partial curve, poor fit]. With `CN1CCOc2c(C(=O)NCCC(N)=O)cc(-c3ccccc3F)cc21` the Potency was inconclusive: 50.1 µM [inhibitor, partial curve, poor fit]. In the case of `CNC(=O)c1cc(C2CC2)nc2onc(C3CCCN3C(=O)c3ccccn3)c12` (configuration not stated), the “activity change, negative = cytotoxicity” value is reported as inactive: -15.4%. With `C1=CC[C@H]2CN(c3nccc(-c4ccccn4)n3)C[C@H]2C1` the Potency was inconclusive: 44.7 µM [inhibitor, partial curve, poor fit]. For `O=C(NCc1nnc2cc(-c3nc(C4CC4)no3)ccn12)C1CC1`, the Potency was inconclusive: 6.31 µM [inhibitor, full curve]. With `COc1cccc(C(=O)N2CCCN(c3cc(-c4ccc(Cl)cc4)[nH]n3)CC2)c1` the Potency was inconclusive: 44.7 µM [inhibitor, partial curve, poor fit].
